Test results from PubChem BioAssay AID1159614 (National Center for Advancing Translational Sciences (NCATS), 2016).
The campaign covered roughly 45,000 compounds. About 65 (0.1%) were called active. Calls come from the whole dose curve; as a rule, active = well fitted activation curve with a large enough effect; inconclusive = small, poorly fitted or top-dose-only effect; inactive = no such curve, though single readings can be large or run the other way. This is one part of the list.

molecular target: Galactocerebrosidase (Homo sapiens) (UniProt P54803); test: A Novel Cell-Based Assay to Identify Small Molecules for B -Galactocerebrosidase; details: 145M-Twi-hGALC-G270D cells (Twitcher mouse brain line with human GALC G270D), HMU-beta-Gal fluorescence, 48 h; series mostly up to 57.5 µM; activation: at the top concentration; note: 0% is about no effect; nearly all actives have a fitted effect of over 65% in size
Sequence of UniProt P54803 (P54803 whole entry, looked up): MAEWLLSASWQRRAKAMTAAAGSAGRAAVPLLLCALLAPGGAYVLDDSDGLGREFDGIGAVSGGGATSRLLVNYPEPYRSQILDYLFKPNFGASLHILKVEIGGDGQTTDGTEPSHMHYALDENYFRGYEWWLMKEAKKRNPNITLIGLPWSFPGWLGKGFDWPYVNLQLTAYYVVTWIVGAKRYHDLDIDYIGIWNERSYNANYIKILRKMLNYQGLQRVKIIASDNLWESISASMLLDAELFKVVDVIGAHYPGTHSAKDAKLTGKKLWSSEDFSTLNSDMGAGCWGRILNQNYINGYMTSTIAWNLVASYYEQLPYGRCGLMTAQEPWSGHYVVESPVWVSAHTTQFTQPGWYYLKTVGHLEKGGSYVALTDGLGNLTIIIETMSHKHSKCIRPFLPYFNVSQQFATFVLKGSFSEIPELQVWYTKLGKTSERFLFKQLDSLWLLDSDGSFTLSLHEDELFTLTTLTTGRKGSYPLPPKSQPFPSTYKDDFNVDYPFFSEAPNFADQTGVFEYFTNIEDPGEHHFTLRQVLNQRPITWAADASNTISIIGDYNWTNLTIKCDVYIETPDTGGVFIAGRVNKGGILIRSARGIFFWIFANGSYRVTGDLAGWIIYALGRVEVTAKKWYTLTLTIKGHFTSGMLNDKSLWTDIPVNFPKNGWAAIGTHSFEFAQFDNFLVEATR
Summary of the method: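 Fluorogenic HMU-b-Gal hydrolysis (0.1 mM final, pH 5.2 citrate-phosphate with 1 mg/mL sodium taurocholate; carbonate stop buffer) measures mutant GALC activity after compound treatment of live 145M-Twi Twitcher brain cells stably carrying human GALC-G270D, with wild-type GALC line alongside; activation sought.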

| Compound | activation |
| --- | --- |
| CC1CCN(C(=O)Cn2c(=O)n(CCCCCC(=O)NCc3ccccc3Cl)c(=O)c3sccc32)CC1 | inactive: -8.57% |
| CC(=O)Nc1cc(-c2nc3cc(Cl)ccc3o2)ccc1C | inactive: -0.627% |
| CCOC(=O)c1ccccc1NC(=O)N1CCN(Cc2cc(=O)n3nc(-c4ccccc4)sc3n2)CC1 | inactive: -18.3% |
| CC1=C(C(=O)Nc2ccccc2)C(c2ccccc2C)n2nc(SCC(=O)c3ccc(C)cc3)nc2N1 (stereo unspecified) | inactive: 4.81% |
| COCCCNc1nc2c(S(=O)(=O)c3ccccc3)nnn2c2ccc(Cl)cc12 | inactive: -19.4% |
| O=C(NCc1cccs1)c1nn(-c2ccccc2Cl)nc1CO | inactive: -9.57% |
| Cc1[nH]n(-c2ccccc2)c(=O)c1C(c1cc(Cl)ccc1O)c1c(C)[nH]n(-c2ccccc2)c1=O | inactive: 7.05% |
| CCN(c1cccc(C)c1)S(=O)(=O)c1ccc(-n2cccn2)cc1 | inactive: -6.49% |
| CCc1ccc(NC(=O)CCS(=O)(=O)c2cc3c(cc2Cl)NC(=O)CO3)cc1 | inactive: 2.42% |
| CCOc1ccc(-c2cc(CCCC(=O)NCCc3ccc(Cl)cc3)no2)cc1 | inactive: -7.99% |
| O=C(NCCc1csc(-c2ccc(C(F)(F)F)cc2)n1)c1ccc(F)c(F)c1 | inactive: -32.6% |
| Cc1cccc(NC(=O)CSc2nc(-c3cccs3)cc(C(F)(F)F)c2C#N)c1C | inactive: 14.5% |
| COC(=O)c1c(-c2cccs2)csc1NC(=O)c1cccc(Cl)c1 | inactive: -13.4% |
| COC(=O)c1c(-c2cccs2)csc1NC(=O)c1ccc(Br)cc1 | inactive: -5.95% |
| Cc1cccc(-c2c3c(=O)n(C)c(=O)n(C)c3c3c(C)nc4ccccc4n23)c1 | inactive: -7.2% |
| CCN(c1ccccc1)S(=O)(=O)c1cc(Br)cc2c1N(C(=O)C1CC1)CC2 | inactive: 3.44% |
| Cc1ccc(-c2cc(C(=O)NCc3cnn(C)c3C)c3ccccc3n2)cc1C | inactive: -6.09% |
| Cc1ccc(C(=O)N2CCc3cc(CNC(=O)CSc4ccccc4)ccc32)cc1 | inactive: -26.9% |
| COc1ccc(CNC(=O)C(=O)Nc2c3c(nn2-c2ccccc2)CSC3)cc1 | inactive: -2.35% |
| COc1cc(OC)c(OC)cc1CN1CCc2nc(Nc3ccc4c(c3)OCCO4)ncc2C1 | inactive: -9.71% |
| CCCNC(=O)C1=CC(c2ccc3c(c2)OCO3)=NS(=O)(=O)N1C | inactive: -14.3% |
| N#Cc1ccc(S(=O)(=O)N2CCC(Oc3cccc(C(F)(F)F)c3)CC2)cc1 | inactive: -9.03% |
| COc1ccc(S(=O)(=O)NCCc2sc(-c3cccnc3)nc2C)cc1OC | inactive: -21.8% |
| COc1cc(CN(C(=O)c2ccccc2Br)c2ccccn2)cc(OC)c1OC | inactive: 2.49% |

| Compound | activation |
| --- | --- |
| Cc1cc(C)cc(NC(=O)Cn2nc(N3CCN(c4ccccc4)CC3)ccc2=O)c1 | inactive: -11.4% |
| CC(=O)c1c(C)n(S(=O)(=O)c2ccc(Cl)cc2)c2ccc(NS(=O)(=O)c3ccc(Cl)cc3)cc12 | inactive: -23% |
| CCOc1cc2c(cc1OCC)C(CC(=O)OC)N(C(=O)Nc1cc(OC)ccc1OC)CC2 (stereo unspecified) | inactive: -20.6% |
| CCOC(=O)c1ccc(N)cc1 | inactive: -11.6% |
| CCN(CC)C(=O)c1sc2c(c1C)c(=O)n(CCc1ccccc1)c(=O)n2Cc1ccc(C)cc1 | inactive: -9.66% |
| CCc1ccc(NC(=O)c2cccc(N3CCCS3(=O)=O)c2)cc1 | inactive: 1.01% |
| Cc1ccc(C)c(N2CCN(C(=O)CCS(=O)(=O)c3ccc4c(c3)oc(=O)n4C)CC2)c1 | inactive: -7.55% |
| Cc1ccc(NC(=O)CN2C(=O)C(c3ccc(C)cc3)=NC23CCCCCC3)cc1 | inactive: 9.98% |
| COc1ccc2c(c1)c(=O)c(S(=O)(=O)c1ccc(Cl)cc1)cn2Cc1cc(C)ccc1C | inactive: -0.714% |
| CCCCNC(=O)c1cc(-c2cccnc2)nc2ccc(S(=O)(=O)NCCCC)cc12 | inactive: -7.26% |
| CCN1CCSc2ccc(C(=O)NCc3ccc(F)cc3)cc21 | inactive: 27.7% |
| COc1ccc(CNC(=O)Cn2ncc3c(=O)oc4ccccc4c32)c(OC)c1 | inactive: -11.5% |
| Cc1ccc(CNC(=O)CCSCc2cnn(-c3ccccc3)c2-n2cccc2)cc1 | inactive: -0.421% |
| COc1ccc(NCc2cccn2-c2nnc(N3CCOCC3)s2)cc1OC | inactive: -9.26% |
| CCc1cccc(NC(=O)Cc2nc(-c3ccc(OC)cc3)no2)c1 | inactive: -6.07% |
| COCCCNC(=O)c1nn(C)c2c1CS(=O)(=O)c1ccccc1-2 | inactive: -10.5% |
| Cc1csc2nc(COC(=O)c3cccc(NC(=O)COc4ccccc4Cl)c3)cc(=O)n12 | inactive: -6.42% |
| CCN(CC)CCOC(=O)C(c1ccccc1)c1ccccc1 | inactive: -7.02% |
| OC(CCCN1CCCCC1)(c1ccccc1)c1ccccc1 | inactive: -8.92% |
| COc1cc([N+](=O)[O-])ccc1NC(=O)c1nc2ccccc2n(C)c1=O | inactive: -11.3% |
| Cc1ccc(S(=O)(=O)c2nc(-c3cccc(Br)c3)oc2N2CCCCCC2)cc1 | inactive: -26% |
| O=C(CSc1nnc2[nH]c(=O)cc(-c3ccccc3)n12)Nc1ccc(OC(F)(F)F)cc1 | inactive: -8.23% |
| COC(=O)CCCn1c(-c2ccc(C)cc2)c(C)n2c3c(=O)n(C)c(=O)n(C)c3nc12 | inactive: -7.17% |
| COc1ccc(CNC(=O)CC2N=C3c4ccccc4N=C(SCC(=O)Nc4ccc(C(C)C)cc4)N3C2=O)cc1 (stereo unspecified) | inactive: -6.51% |

| Compound | activation |
| --- | --- |
| COc1ccc(-c2cn3c(n2)sc2cc(C(=O)NC(C)C45CC6CC(CC(C6)C4)C5)ccc23)cc1 (stereo unspecified) | inactive: -11.7% |
| CCCSc1ncc(Cl)c(C(=O)Nc2sc(C(C)=O)c(C)c2C(=O)OCC)n1 | inactive: -11.7% |
| O=C(Cc1ccc(Cl)cc1)NCC(c1cccs1)S(=O)(=O)c1ccccc1 (stereo unspecified) | inactive: -6.92% |
| Cc1cc(=O)n(Cc2c(F)cccc2Cl)c2c1c(C)nn2-c1cccc(F)c1 | inactive: -12% |
| Cc1ccc(S(=O)(=O)N(CC(=O)Nc2ccc(F)cc2F)Cc2ccc(F)cc2)cc1 | inactive: -16.8% |
| CCN(CC)c1cc(C)c2cc(NC(=O)c3cc(OC)cc(OC)c3)ccc2n1 | inactive: -11.5% |
| CCn1ccc2c(OCC(=O)Nc3ccc(C)c(Cl)c3)cccc2c1=O | inactive: -7.4% |
| COc1cccc(N2CCN(C(=O)CCSCc3ccccc3F)CC2)c1 | inactive: 4.07% |
| CCOC(=O)C1CCN(S(=O)(=O)c2cc3c4c(c2)C(C)C(=O)N4CCC3)CC1 (stereo unspecified) | inactive: -14.9% |
| Cc1cccc(C(=O)Nc2c(C(=O)N3CCN(c4ccc(F)cc4)CC3)oc3ccccc23)c1 | inactive: -9.82% |
| CN(C)S(=O)(=O)c1ccc2c(c1)N(CC(=O)Nc1cccc(C(F)(F)F)c1)C(=O)CS2 | inactive: -2.81% |
| Cc1c(CNC(C)CCc2ccccc2)c(C(=O)O)c(C)n1Cc1ccc(F)cc1 (stereo unspecified) | inactive: -19.8% |
| CCOc1ccc(NC(=O)C(CC(C)C)N2Cc3ccccc3C2=O)cc1 (stereo unspecified) | inactive: -1.46% |
| CCOC(=O)c1ccccc1NC(=O)NCc1c(-n2cccc2)sc2c1CCCC2 | inactive: -16.1% |
| CC(C)(C)OC(=O)N1CCC(N2CCN(Cc3ccccc3)C(=O)C2=O)CC1 | inactive: -7.77% |
| Cc1onc(-c2ccccc2Cl)c1C(=O)Oc1ccccc1F | inactive: -18.3% |
| COc1cc(C(=O)NC(c2ccccc2Cl)c2cc(Cl)c3cccnc3c2O)cc(OC)c1OC (stereo unspecified) | inactive: -11.3% |
| Cc1ccc(C)c(NC(=O)CSc2nnc3[nH]c(=O)cc(-c4ccccc4)n23)c1 | inactive: -4.5% |
| CC(=O)Nc1ccc(NC(=O)c2cc(CN3CCCC3)on2)cc1 | inactive: -16% |
| CCOc1ccc(NC(=O)Cn2c(=O)n(CC3CCC(C(=O)NCCc4ccccc4)CC3)c(=O)c3ccccc32)cc1 (stereo unspecified) | inactive: -12.3% |
| COc1ccc(NC(=O)CSc2oc(-c3ccco3)nc2S(=O)(=O)c2ccc(C)cc2)c(OC)c1 | inactive: -10.9% |
| COc1ccccc1C(=O)Nc1cccc(C(=O)OCc2cc(=O)n3c4c(sc3n2)CCCC4)c1 | inactive: -11.5% |
| CCS(=O)(=O)N1CCc2cc(C(=O)Nc3cc([N+](=O)[O-])ccc3C)ccc21 | inactive: 3.45% |
| COc1cc(C2c3c(-c4cc(C)ccc4O)n[nH]c3C(=O)N2Cc2cccnc2)cc(OC)c1OC (stereo unspecified) | inactive: -22.4% |

| Compound | activation |
| --- | --- |
| CCOc1ccccc1NC(=O)c1ccc2c(c1)CCN2S(C)(=O)=O | inactive: -10.4% |
| CCn1cc2nc(SCC(=O)Nc3cc(OC)ccc3OC)n(Cc3ccc(Cl)cc3)c(=O)c2n1 | inactive: -9.95% |
| Cc1ccc(-n2c(SCC(=O)N3CCc4ccccc43)nc3c([nH]c4ccccc43)c2=O)cc1 | inactive: -0.101% |
| O=C(NC1CCCCC1)c1ccc2c(c1)N(Cc1ccccc1F)C(=O)c1ccccc1S2 | inactive: -2.7% |
| Cn1c(=O)c(=O)n(C)c2cc(S(=O)(=O)N3CCCC3C(=O)Nc3cccc(F)c3)ccc21 (stereo unspecified) | inactive: -7.71% |
| O=C(CCn1c(=O)c2cccn2c2cccnc21)N1CCN(c2ccc(F)cc2)CC1 | inactive: -11.1% |
| CCCC(=O)Nc1nnc(SCc2cc(=O)n3ccccc3n2)s1 | inactive: -7.75% |
| COc1ccccc1CCNC(=O)Cn1ccc2cc(S(=O)(=O)N3CCCCC3)ccc21 | inactive: -27% |
| CC(C)(C)CC(C)(C)c1ccc(O)c(Cc2ccc(Cl)cc2Cl)c1 | inactive: -14.3% |
| COc1ccc(C(=O)Nc2ccc3nc(SCC(=O)N4CCCC4)sc3c2)cc1 | inactive: -16.9% |
| COc1ccc(-c2noc(CN(C(=O)c3ccccc3Cl)C(C)C)n2)cc1 | inactive: -7.45% |
| Cc1ccccc1Cn1c(-c2cccs2)nc2ccccc21 | inactive: -11% |
| CCN(CCN(C)C)C(=O)Cn1ncc2c([nH]c3ccc(C)cc32)c1=O | inactive: -14.7% |
| CN1CCN(c2c(F)cc3c(=O)c(C(=O)O)cn4c3c2OCN4C)CC1 | inactive: -21.9% [at 23.8 µM] |
| Cc1ccc(CNC(=O)C2CCN(Cc3nc(-c4ccccc4C)oc3C)CC2)cc1 | inactive: -12.1% |
| Cc1ccn2c(Nc3ccccc3C)c(-c3ccncc3)nc2c1 | inactive: -2.57% |
| Cc1cccc(NC(=O)CSc2nnc(CNC(=O)c3cccc(C)c3)n2-c2ccccc2)c1 | inactive: -14.1% |
| CCCCn1c(CN2CCN(c3ccc(OC)cc3)CC2)nc2c1c(=O)[nH]c(=O)n2C | inactive: -8.59% |
| CCOc1ccc(CNC(=O)CCC(=O)N2Cc3ccccc3Oc3ncccc32)cc1 | inactive: -7.8% |
| Cc1ccc(Cn2c(CN3CCC(C(=O)NCc4cccnc4)CC3)cc3ccccc32)cc1 | inactive: -0.752% |
| COC(=O)c1cc(Cl)c(NC(C)=O)cc1OC | inactive: -9.03% |
| Cc1ccc2nc(CSc3nnc(NC(=O)CC(C)C)s3)cc(=O)n2c1 | inactive: -9.95% |
| CN1CC(=O)N(CC(=O)Nc2cccc(C#N)c2)c2ccccc2C1=O | inactive: -7.77% |
| O=C(Nc1ccccc1C(F)(F)F)C1(S(=O)(=O)c2ccc(Cl)cc2)CC1 | inactive: -4.45% |
